Data: paper PMC12136788
The other results are listed elsewhere or left out.

B1: 204354501_204354621_777_CDS_ENSG00000173166_ENST00000319170|human|control|control (ssRNA)
RNA: GGGAGUUCUACAGUCCGACGAUCAGUAUCUUCUAGUACAGAUUGCUGAGCAGCCUCAUCCAUACUCAAAGAGGCCUGUUCUAACUGUGCAGUGACGUCGUCCAAGGAGUAGCUGGCAUGGGAAGGUUUAGCUAUCCUAUUAGACAACAGAGGAUUGAGCAUCA
B2: chr10:62544473:62544474:+_ENSG00000170312_ENST00000395284|hu_mus|motif|central (ssRNA)
RNA: GGGAGUUCUACAGUCCGACGAUCAGUGACUCUGUGUCUACCCUUAUACACCACACCGUAAGUACCUUCUCCAAUUUUCUCGGUUUUGAUAUAGUCUUCCAUAGUUACUCAACAGGUUACGACGGACCCUCUCGUGAGCUGUUCCAACAGAGGAUUGAGCAUCA
B3: chr2:48782750:48782751:-_ENSMUSG00000026761_ENSMUST00000141441|mus_mus|FALSE|FALSE (ssRNA)
RNA: GGGAGUUCUACAGUCCGACGAUCUUUUUCUGAUGAGCAAAAAUAUCAAAUUCAUCCAGUAUGAAGAUCACUGGGCAACUGCUAGUCCGGUCACCUUUUUGCAAAGCUUCCAGAAGAAAUGAAAGGUUUUCAGCAAAGCUUCCACAACAGAGGAUUGAGCAUCA
B4: chr1:225977404:225977405:+_ENSG00000143742_ENST00000304786|hu_mus|FALSE|FALSE (ssRNA)
RNA: GGGAGUUCUACAGUCCGACGAUCUACUCCAAAAGAAACAUACCACUGCAGCAAAAGUUACAUUUUAUUUCAUCUUAGACACAAUCUAGAAAGACCUUUUCUUGUUAACUCUUCAACAAAUUACUGACAUGAAUUUACCAGAAACAACAGAGGAUUGAGCAUCA
B5: chr18:52937122:52937123:-_ENSG00000196628_ENST00000354452|hu_mus|motif|central (ssRNA)
RNA: GGGAGUUCUACAGUCCGACGAUCUAUACUGUCUGUUCCGUUGGCAGGGGGUGUGCAGGAAGAGGUGCUGUAAUGGUUUGUGCCACGGCGAUGGAACGUGGACAUCGGAGGAAGACUGGAGUUGAUGUCUGCCGAGGAGUGGGACAACAGAGGAUUGAGCAUCA
B6: chr11:102700179:102700180:-_ENSMUSG00000020929_ENSMUST00000107060|mus_mus|FALSE|FALSE (ssRNA)
RNA: GGGAGUUCUACAGUCCGACGAUCAUAAUUGAGCACAACAUCCUGUUUGGCGAGCUCCAGCAACAUAGGAUCGUCGAAGAACUUGCUGAUGCUCACAUCUUCACUCAGGCCCUUCCUACGACGGGUUUUGAUCAUGAACUCCCGCAACAGAGGAUUGAGCAUCA
B7: 68238525_68238645_86_5pUTR_ENSMUSG00000037685_ENSMUST00000037380|mouse|control|control (ssRNA)
RNA: GGGAGUUCUACAGUCCGACGAUCUGCGCCGCGCAGAGGGCUCAGCUGCCGCGGGGCCGCGCCUCCCACCCAGGGCAGCGUCGCCGCCAGGAGCCGCCUGGGCACUGGACGGGAGGGGGAAGGCGGCGAAGGAGCUGCGUCCGCCAACAGAGGAUUGAGCAUCA
B8: chr18:77180173:77180174:+_ENSMUSG00000090000_ENSMUST00000026487|mus_mus|FALSE|FALSE (ssRNA)
RNA: GGGAGUUCUACAGUCCGACGAUCGAUAUAAACUGAACAACAGUAUUAUGAGAUGAGCCAAGAACACCACAAAGCUGGUCUAAGACAUAAGACAGACGAACAAACGAAAGCUACUUAGAAUCAACAACCUACCUACAGACAGAACAACAGAGGAUUGAGCAUCA
B9: 25843335_25843557_1556_CDS_ENSMUSG00000003378_ENSMUST00000003468|mouse|control|control (ssRNA)
RNA: GGGAGUUCUACAGUCCGACGAUCUAGAGUCUGUGACAGGUUGAUGUCCAGGGUGGUGGCAUUCAUGGCCAGGGUCCGGUUAGAGUACCACACCCCUAUCUCACGGUGGCCCUGGCGGGACUUCUCCAGGAUGCGUAGUGUGUACAACAGAGGAUUGAGCAUCA
B10: chr3:132390928:132390929:+_ENSG00000081307_ENST00000264991|hu_mus|FALSE|FALSE (ssRNA)
RNA: GGGAGUUCUACAGUCCGACGAUCACUGGCUGCGCAGACGCCUUCUCGUUUCAGGGUUUUUUCAUCAAUAUUUGAAGCAACUACAAGUGGUGGCGCACACGCGAAGCAAGCCGACUCUCCAGGGAUCAUCAGCUGGAUGUGCCCCAACAGAGGAUUGAGCAUCA
B11: chr12:48362563:48362564:+_ENSG00000134291_ENST00000256686|hu_hu|hu_hu_hu_mus_False|1_28 (ssRNA)
RNA: GGGAGUUCUACAGUCCGACGAUCUCCGUCAAGCCCUUCGAUAGACCCUUGCGGGGGAAACUGUAAUCACUUUGUAUGGGGAAGGAAAAGAAACGCCAAAAACUUUCUUUCUUUCUUGGGUGGGGUGAGGCGGGAGGUUGGGAACAACAGAGGAUUGAGCAUCA
B12: 40030617_40030737_193_3pUTR_ENSG00000176396_ENST00000390658|human|control|control (ssRNA)
RNA: GGGAGUUCUACAGUCCGACGAUCCGGCUCCCGCCUCCCGCGGCCUACCUCCGCCUGCGGGACGUCUCUGUCACCAUUCGCCGCGCCUGUCUGCGGGACACUGCUGUCUGCGGGCAGCUUGGACAUCUCAGACCGUGGGGUCAACAACAGAGGAUUGAGCAUCA
B13: chr2:38870762:38870763:+_ENSMUSG00000026755_ENSMUST00000090993|mus_hu|FALSE|FALSE (ssRNA)
RNA: GGGAGUUCUACAGUCCGACGAUCAGAUCCUAAACAGGAUUUAGGAAACAGACGAUUUUCCCCUCCACCUUGAAAAUAAAAUACAUUUCAGCAGAUACAUGUCCUGAAAUAGUUUACUUGGGAGUUCCUAGGAAGAUGGUCCAUCAACAGAGGAUUGAGCAUCA
B14: chr7:107790313:107790314:-_ENSG00000091129_ENST00000351718|hu_hu|FALSE|FALSE (ssRNA)
RNA: GGGAGUUCUACAGUCCGACGAUCCUCUCUACCCAUAUGUUCAUAGUAUGAGAGGGCUGACAAACAAGUGCUUAGGAUAAACAUUCUAGAGAAAUGGAAUAUUGGCAAAGAGCUUAAAAAUUAAACAAAGGAAUUCAUGGCGUUCAACAGAGGAUUGAGCAUCA

These binders were tested against T1, UNK ZnF1-3 (human, UniProt Q9C0B0 31-174) (assay: nsRBNS (natural sequence RNA bind-n-seq); RBNS binding buffer (assumed for nsRBNS): 25 mM Tris pH 7.5, 150 mM KCl, 3 mM MgCl2, 0.01% Triton X-100, 500 ug/ml BSA, 20 U/ml SUPERase-In, 4 C; UNK is unkempt and MSI1 is Musashi-1; names of the RNAs are library labels; protein concentration not given here; high values mean tight binding).
T1 sequence: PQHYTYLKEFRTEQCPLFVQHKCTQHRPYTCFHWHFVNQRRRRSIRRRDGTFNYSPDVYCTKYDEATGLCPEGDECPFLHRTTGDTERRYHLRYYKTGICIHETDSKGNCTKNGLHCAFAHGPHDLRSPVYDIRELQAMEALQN

Binder | binding signal [enrichment R]
B1 | 1.12
B2 | 0.642
B3 | 1.05
B4 | 0.964
B5 | 1.28
B6 | 1.35
B7 | 0.855
B8 | 1.56
B9 | 0.845
B10 | 1.12
B11 | 1.72
B12 | 0.63
B13 | 1.05
B14 | 1.95
